Molecules are shown by their SMILES. Where “and” joins values, the source holds several entries; their conditions need not be identical. Equal entries are not always repeated.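 These data come from cells grown in 96-well plates and exposed to compound for 48 hours at five concentrations. Abbreviation: GI50, concentration required for 50% inhibition of growth. TGI: total growth inhibition.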

This assay has as its system NCI-H322M lung. As to the kind of experiment: NCI tumour cell line growth inhibition, 48 h.
For the compound `O/N=C1/C(=C/c2ccc(Cl)c(Cl)c2)CCCC1C(NO)c1ccc(Cl)c(Cl)c1` (stereo not given), the TGI is 28.2 µM. On to `COCOc1cc(OCOC)cc(C(=O)Oc2ccccc2)c1`, for which the TGI is above 100 µM. The same measure, in the same setting: for `CCN(CC)CCNc1ccc2nnn3c4ccc([N+](=O)[O-])cc4c(=O)c1c23` the value was above 100 µM; for `O=C1c2[nH]c3ccccc3c2CCN2CCCCC12` (stereo not given), above 100 µM; for `Cc1c2c(cc3c1[nH]c1ccccc13)C(c1ccc(Cl)cc1)=NCC2`, 8.74 µM.

In turn, `c1ccc(C2(c3ccccc3)SSC3(S2)C2CC4CC(C2)CC3C4)cc1` (stereo not given) registered a TGI above 100 µM. On the same count and under the same terms, for `CO[C@@H]1C[C@H](OC(N)=O)[C@@H]2C=C[C@@H]3/C=C(C)/C=C/[C@@H](C)[C@H]([C@H](C)[C@H](O)[C@@H](C)NC(C)=O)OC(=O)/C=C/C=C(C)\C=C\[C@]3(C)[C@@H]2C1` the value was 11 µM. On to `CC(C)=CCC/C(C)=C/CO`, for which the TGI is above 100 µM.

In turn, `O=C(CCc1n[nH]c(=S)o1)Nc1ccc(Cl)cc1Cl` registered a TGI above 100 µM. The same measure, in the same setting: for `CC(=O)Nc1ccc(S(=O)(=O)Nc2nc(-c3ccc(Cl)cc3)cc(N3N=C(c4ccc(Br)cc4)CC3c3ccccc3)n2)cc1` (stereo not given) the value was 30 µM. Take `O=c1c2cc(F)ccc2sc2c(Nc3ccncc3)nc3ccccc3c12`: the GI50 is 2.23 µM and the TGI came to 7.53 µM. `O=C1Nc2cc(Cl)ccc2C(=O)N2CCC[C@@H]12` came in with a TGI above 100 µM. `CCN(CC)Cc1cc(Nc2c3ccc(Cl)cc3nc3ccc(OC)cc23)ccc1O`: the GI50 was 10.8 µM and the TGI is 31.3 µM. For `c1ccc([P+](c2ccccc2)(c2ccccc2)c2ccc3c4ccc([P+](c5ccccc5)(c5ccccc5)c5ccccc5)c5cccc(c6cccc2c63)c54)cc1`, in that order: 2.45 µM and 27.5 µM.

In turn, `CC(C)(C)c1ccc(C(C)(C)C)c(N2C(=O)[C@@H]3[C@@H]4C=C[C@@H](C4)[C@]3(C)C2=O)c1` came in with a TGI above 100 µM. For the compound `CC1(C)C(N(O)C(=O)Nc2ccc(Cl)cc2)N(c2ccc(Cl)cc2)C(=O)N1CC(=O)N/N=C/C=C/c1ccc([N+](=O)[O-])o1` (stereo not given), the GI50 is 4.95 µM and the TGI was above 61.7 µM. Regarding `CN(C)CCCNC(=O)c1cc2/c(=C\c3ccc(N(C)C)cc3)c3ccccc3n2[n+]1C`, the TGI was 78.6 µM. As for `CCOC(=O)C1=C(Cl)c2cccnc2C1=O`, the TGI was above 100 µM. On the same count and under the same terms, for `O=C(NN1C(=O)C(Cl)C1c1ccc(O)cc1)c1ccccc1O` (stereo not given) the value was 42.4 µM; for `C[C@@]1(Br)C[C@@](C)(Cl)[C@@H](Br)CC1/C=C/Cl` (stereo not given in full), 42.7 µM; for `CNCC(=O)Nc1ccc2c(c1)C(=O)c1ccc(NC(=O)CNC)cc1C2=O`, 11.9 µM. The compound `CCNC(=O)N(CC)CN(CC)C(=O)NCC` returned a TGI above 100 µM. On the same count and under the same terms, for `NC(=S)N/N=C1\CCCCc2ccccc21` the value was above 10 µM. As for `O=C(CSc1nnc(SCC(=O)NN=C2CCCCC2)s1)NN=C1CCCCC1`, the TGI was above 100 µM. `c1coc(C2=Nc3cccc4cccc(c34)N2)c1` gave a TGI above 100 µM.

Turning to `CCOC(=O)C1C(=O)C=C(c2cc(C)ccc2O)CC1c1cccc(Cl)c1` (stereo not given), the TGI was above 100 µM.

As to `C=C(CNCCc1ccc(O)cc1)[C@@H]1CC[C@]2(CO)CC[C@]3(C)[C@H](CC[C@@H]4[C@@]5(C)CCC(NCCc6ccc(O)cc6)C(C)(C)[C@@H]5CC[C@]43C)[C@@H]12` (stereo not given in full), the GI50 is 1.47 µM and the TGI came out at 2.81 µM. With `Clc1ccc2c(c1)C(Br)c1cc(Cl)cc(Cl)c1-2` (stereo not given), the GI50 is above 100 µM and the TGI is above 100 µM. Compound `COC(=O)CN(CC1O[C@@H]2OC(C)(C)O[C@@H]2C1N=[N+]=[N-])C(=O)OCc1ccccc1` (stereo not given in full) had a TGI above 100 µM. Take `NC1CCCCC1N.Nc1c(N=Nc2ccc(-c3ccc(N=Nc4cc(S(=O)(=O)[O-])c5ccccc5c4N)cc3)cc2)cc(S(=O)(=O)[O-])c2ccccc12.[OH3+].[OH3+].[Pt+4]`: the GI50 was above 100 µM and the TGI was above 100 µM. The compound `Cc1nc2ccccn2c1N=Nc1ccc(C(=O)NN)cc1` displayed a TGI above 100 µM. For `O=c1cc(-c2ccccc2)c2ccc(O)c(CN(CCCl)CCCl)c2o1`, the TGI worked out at 67.8 µM.

`Cc1cc(Nc2ccc(S(=O)(=O)O)cc2)c2ccccc2n1` yielded a TGI above 100 µM. On to `CC1CCC2(OCCO2)[C@]2(C)CC(O)C(=O)C=C12` (stereo not given in full), for which the TGI was above 100 µM. As to `CC1=C2O[C@]3(O)C=C2C(=C(O)C1=O)[C@@H]1O[C@H](CC[C@H](C)/C=C(\C)C[C@@H](C)C[C@@H]3C)[C@H](C)[C@H](O)[C@H]1C`, the GI50 is 1.54 µM; the TGI was 2.47 µM and 2.98 µM. For the compound `COc1cc(OC)c2c(c1-c1ccc(C)cc1)CC(C)N(Cc1ccccc1)[C@H]2C` (stereo not given in full), the TGI was above 100 µM. Take `COC1=CC(=Nc2c(Cl)cc(Cl)cc2OC(=O)c2ccc([N+](=O)[O-])cc2)C=C(OC)C1=O`: the TGI was determined as 31.1 µM. With `CC(=O)NCCC1CNc2ccccc21` (stereo not given), the TGI was above 100 µM. Regarding `COc1ccc(CC(C)=C(c2ccc(OCCN3CCCCCC3)cc2)c2ccc(OCCN3CCCCCC3)cc2)cc1`, the GI50 was 0.364 µM and the TGI was 0.981 µM. Turning to `O=C(Nc1ccc(OCc2nnc(-c3ccc(Cl)cc3)o2)c(F)c1)c1ccc(Cl)c(C(F)(F)F)c1`, the GI50 is above 50 µM and the TGI is above 50 µM. On to `Nc1nc(-c2ccco2)cc(-c2ccco2)n1`, for which the TGI is above 100 µM.

In turn, `COc1cccc2c1N[S@](=O)S2` displayed a TGI above 100 µM.

For `[N-]=[N+]=NCCCn1c2c(c3cc4c(cc3c1=O)OCO4)C(=O)c1ccccc1-2`, the GI50 is 40 µM and the TGI was above 100 µM. `COc1ccc(C(=O)NCCC2CN(S(=O)(=O)C(F)(F)F)c3ccccc32)c(OC)c1` (stereo not given) gave a TGI above 100 µM. Still for that read-out and setting: for `Oc1ccc(O)c(Cc2ccccc2)c1` the value was above 100 µM. `c1cc2c(s1)SSSSS2`: the GI50 was 19.7 µM and the TGI was determined as 42.3 µM. `Cn1c(-c2ccccc2)cc(-c2ccsc2)c1-c1ccsc1` showed a TGI above 100 µM. Take `CC(C)OC(=O)C1=C2c3ncccc3C(=O)N2[C@@H](Cl)[C@H](Cl)[C@H]1Cl`: the TGI is above 100 µM. Take `COc1ccc(CC#C/C=C/C(=O)NCC(C)C)cc1`: the TGI is above 100 µM. The compound `C1CSC(Sc2nc(SC3=NCCS3)nc(SC3=NCCS3)n2)=N1` registered a TGI above 100 µM. With `COc1ccc(-c2cc(-c3ccccc3)nc(SCCCC(=O)NO)n2)cc1OC`, the GI50 is 2.12 µM and the TGI was 11.7 µM. Compound `C=Cc1nc2nnc(CCCCCCCCc3nnc4nc(C=C)[nH]n34)n2[nH]1` gave a TGI above 100 µM.

`ClC(Cl)(Cl)C(N1CCN(c2ccccc2)CC1)N1CCN(c2ccccc2)CC1` yielded a TGI above 100 µM.

In turn, `CCOC(=O)C(=O)/C(=C/n1c(=S)[nH]c2ccc([N+](=O)[O-])cc21)C(=O)OCC` displayed a TGI above 100 µM.

As to `O=C1Nc2ccccc2/C1=C\c1c(Cl)nc2sccn12`, the GI50 was 7.47 µM and the TGI was found to be 18.5 µM. `O=C(N[C@@H](c1ccccc1)[C@@H](O)C(=O)OCc1ccc2c(c1)OCO2)c1ccccc1` yielded a TGI above 100 µM. For the compound `CCOC(=O)C1CCCCN1C(=O)OCc1ccccc1` (stereo not given), the TGI is above 100 µM. Same read-out and setting: for `CCCCCCCCOCC(CO)OCCCCCCCC` (stereo not given) the value was 35 µM; for `O=C(CC1(O)C(=O)Nc2c(Cl)ccc(Cl)c21)c1ccco1` (stereo not given), above 100 µM.

`C[n+]1c(-c2ccccc2)c2cc(N)ccc2c2ccccc21`: the GI50 was 6.98 µM and the TGI was above 48.2 µM. `O=C1C(Cl)C(c2cc3cc(Br)ccc3nc2Cl)N1c1ccc(F)c(Cl)c1` (stereo not given) registered a TGI of 24.9 µM. The same measure, in the same setting: for `O=C(Cc1nc2ccccc2o1)C(=O)Nc1ccccc1C(F)(F)F` the value was above 100 µM; for `O=CN(CCN1CCCC1)C1CCc2cc(Cl)c(Cl)cc2C1` (stereo not given), above 100 µM. `C/C=C(\C)[C@@H](O)C(=O)O[C@@H]1CC(C(C)(C)O)[C@](C)(CCC(=O)OC)[C@H]2[C@H](OC(=O)[C@H](O)[C@H](C)CC)C[C@]3(C)C(=CC[C@H]3[C@H]3CO[C@H](C=C(C)C)C3)[C@]12C` (stereo not given in full) returned a TGI above 100 µM. Turning to `COc1cc2c(cc1OCCCCCn1c(-c3ccc(OCc4ccccc4)cc3)nc3cc(N4CCOCC4)ccc31)N=C[C@@H]1CCCN1C2=O`, the GI50 was 3.03 µM and the TGI is 18 µM.

The compound `CC(N)Cc1ccc(F)cc1` (stereo not given) registered a TGI above 100 µM. On the same count and under the same terms, for `CCCCCC(=O)N[C@H]1CCc2cc(O)c(O)c(O)c2-c2ccc(SC)c(=O)cc21` the value was above 100 µM; for `COC1=C(OC)C(O)(c2ccccc2)C1=O` (stereo not given), above 100 µM. The same measure, in the same setting: for `Cc1nn(C(=O)c2ccccc2O)c2c1C(c1ccc3ccccc3c1O)SC(N)=N2` (stereo not given) the value was above 10 µM.

In the case of `COc1cc([C@@H]2c3cc4c(cc3[C@@H](Nc3ccc(N=Cc5ccc(C(=O)O[C@@H](C(=O)O[C@H]6C[C@@]7(O)[C@@H](OC(=O)c8ccccc8)[C@@H]8[C@]9(OC(C)=O)CO[C@@H]9C[C@H](O)[C@@]8(C)C(=O)[C@H](OC(C)=O)C(=C6C)C7(C)C)[C@@H](NC(=O)c6ccccc6)c6ccccc6)cc5)cc3)[C@H]3COC(=O)[C@H]23)OCO4)cc(OC)c1O`, the TGI is above 44.8 µM. The same measure, in the same setting: for `O=C1OC(O)c2cc3c(cc21)OCO3` (stereo not given) the value was above 100 µM; for `N[C@]1(C(=O)O)C[C@@H]2C(Br)=NO[C@@H]2C1`, above 100 µM. On the same count and under the same terms, for `OC(c1ccoc1)c1cc2ccccc2s1` (stereo not given) the value was above 10 µM. For `Cc1cnc(-n2c(C)nc3cc(Cl)ccc3c2=O)s1`, the TGI is above 100 µM. Still for that read-out and setting: for `CCn1cc(C(=O)O)c(=O)c2cc(F)c(N3CCN(CN4C(=O)/C(=N\c5ncc(Cc6cc(OC)c(OC)c(OC)c6)c(N)n5)c5cc(Cl)ccc54)CC3)cc21` the value was above 100 µM; for `O=c1c(Cc2c(O)ccc3ccccc23)nnc2sc(-c3nn4c(=O)c(Cc5c(O)ccc6ccccc56)nnc4s3)nn12`, above 100 µM; for `COC1OC(COC(C)=O)C(OC(C)=O)C(OC(C)=O)C1NC(=O)N(CCCl)N=O` (stereo not given), above 100 µM. Same read-out and setting: for `O=C1C(Cl)=C(N2C(=O)CCC2=O)C(=O)c2ccccc21` the value was above 100 µM; for `CC(=O)OC1C2CCC1C1C2N=NN1c1ccc([N+](=O)[O-])cc1` (stereo not given), above 100 µM; for `CCC(=O)c1cc(C(=O)C(=S)SC)cc(C(=O)C(=S)SC)c1`, above 100 µM. On the same count and under the same terms, for `COC(=O)/C(=N\NC(=O)c1ccccc1O)C(C#N)c1ccccc1` (stereo not given) the value was above 50 µM; for `COc1ccc(NC2=NCCO2)c2c1CCCC2`, above 100 µM. With `CCn1c(=O)c(Oc2ccc(F)cc2F)cc2cnc(NC3CCOCC3)nc21`, the GI50 is above 25 µM and the TGI is above 25 µM.

These data come from PubChem BioAssay (NCI).
